In paper PMC12136788:
The other results are listed elsewhere or left out.

T1: UNK ZnF1-3 (human, UniProt Q9C0B0 31-174)
T1 sequence: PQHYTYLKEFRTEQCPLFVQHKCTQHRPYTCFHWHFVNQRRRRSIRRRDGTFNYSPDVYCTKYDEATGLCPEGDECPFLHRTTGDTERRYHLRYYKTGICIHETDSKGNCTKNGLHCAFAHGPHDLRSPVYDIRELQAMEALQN

B1: 63930684_63932353_12046_CDS_ENSG00000103657_ENST00000443617|human|control|control (ssRNA)
RNA: GGGAGUUCUACAGUCCGACGAUCCCUACCAGCACCCCAUAAGUAGACAUCACAUUUACCUCCCAGGUGCCAGUCCUCAGGUCUGGAAGUUGCCCAAGACAUAAUUUGUUCAUCCAUGCCGUUAAUCCAUUUACUGUUAUCCAUCAACAGAGGAUUGAGCAUCA
B2: chr5:138654669:138654670:+_ENSG00000015479_ENST00000502499|hu_mus|FALSE|FALSE (ssRNA)
RNA: GGGAGUUCUACAGUCCGACGAUCUUUCUUUAUUCUCUUAUACUUCUGGGAUAAAUGAACUCUCACUGGCUUGCCAAACACUAAUGCUGGUGUAGUUGUAUAAUAAUCCACAGCAGCCUGAGCAUCUUCUGUGGUGGCCAUUUCCAACAGAGGAUUGAGCAUCA
B3: chr5:145543945:145543946:-_ENSG00000133706_ENST00000545646|hu_hu|hu_hu_hu_mus_True|1_98 (ssRNA)
RNA: GGGAGUUCUACAGUCCGACGAUCCUGAACGGCCAGUGGCGGGAAAUAAUCAAGCCAGUGCUCUGCUUCAGAAAACUUCACUAUGUCGUCAUCAGAGAGCCCAAGGGAUUUCAUAAUGUCCCACUGGUACUUAGAAGAUCCAGCCAACAGAGGAUUGAGCAUCA
B4: chr3:150289932:150289933:+_ENSG00000144895_ENST00000460851|hu_hu|hu_hu_hu_mus_False|98_108 (ssRNA)
RNA: GGGAGUUCUACAGUCCGACGAUCCUUGUAGUUUUUCACAUCCCACACUUCCAUUUGUCCUCGAAGAUUUCCAAAUCCAGCCAGCACUAAUAUAUGUCCAUGAGGGCUAUAGAAGGCUGCGUUGCGAGGACCAGUCCCAAAGUCCAACAGAGGAUUGAGCAUCA
B5: chr7:135612270:135612271:-_ENSG00000105887_ENST00000393085|hu_mus|hu_hu_hu_mus_False|48_98 (ssRNA)
RNA: GGGAGUUCUACAGUCCGACGAUCGUUUUUUUCUGAGUAAGUAUUACGUACUUCAGUGGAAAACAAAACUUAACCUUUUAUUAAUGCAUGUAGUACCAAAAGCAGACAUUUUAGCUUCAUUUAUUCAAAAAUAUUAACAUUAAGCAACAGAGGAUUGAGCAUCA
B6: chr1:184663225:184663226:-_ENSG00000116406_ENST00000318130|hu_mus|motif|central (ssRNA)
RNA: GGGAGUUCUACAGUCCGACGAUCCACCAGAGUCUUUCCAGAGAGUCAUAGUUCAUCCUUCUCCAUCAUUUCAAAUGCUUCGGUGUCUUCAUUCCAGUCUGCUAAUAUGGAGUCUAUAGGCUGGGCCUUUGUACCCCAGCUGACCAACAGAGGAUUGAGCAUCA
B7: 84755613_84757368_2524_3pUTR_ENSMUSG00000026219_ENSMUST00000027421|mouse|control|control (ssRNA)
RNA: GGGAGUUCUACAGUCCGACGAUCUUGAUUUGCUGCAUAGAAUUAAAAUCAAUAGUAUAAACUCGUCCCAGAGUGGACAAGCUUAUCUCAUCCUCACCGACCUGAUGGGCUGCCUCAAUGAUCCGGCUGUCAAUCCUGUUAUAGCAACAGAGGAUUGAGCAUCA
B8: chr1:90180419:90180420:+_ENSG00000171488_ENST00000370454|hu_mus|motif|central (ssRNA)
RNA: GGGAGUUCUACAGUCCGACGAUCAGCCCGGCAGUCUCCCAGCUCGGGAGGGAGGACUUCAAAGUGAUUGCCUUUGAUGUCGGAGUAGGAAAGAAAUAGUAGAUUUCCAAUUUUUGGUGAAAGUACGGAGAGGCUGUUUUUCCCCAACAGAGGAUUGAGCAUCA
B9: chr6:86333760:86333761:-_ENSG00000135316_ENST00000355238|hu_hu|motif|central (ssRNA)
RNA: GGGAGUUCUACAGUCCGACGAUCUUCUUCAAGAAUCUGUUCCUUGGUUUUACUCUUAGGAAUAGAGCCCACAAAAAGCCGGUUGUUGGCAACUGAGAUGCAGACACCAAUAUGUUUUCCAGAACGAAUUUCAUGAUUAUUAUACAACAGAGGAUUGAGCAUCA
B10: chr9:56909451:56909452:+_ENSMUSG00000032290_ENSMUST00000034832|mus_mus|motif|central (ssRNA)
RNA: GGGAGUUCUACAGUCCGACGAUCCACAUACGUACACACACACACACACAGAAUGACAGAAAAGACUGGAAUACACGCCCGGUGUAUAAACGUGCUUGGCACUCGGGACAUUCUCUAGAAUAUGUAACUUGGUCAAGCUUUCUGCAACAGAGGAUUGAGCAUCA
B11: chr7:7679991:7679992:-_ENSG00000106399_ENST00000396682|hu_hu|hu_hu_hu_mus_False|1_1 (ssRNA)
RNA: GGGAGUUCUACAGUCCGACGAUCUGGGAUGAAUCUUUUCCAGCUUCCCCACGAAGCACACGGGCCGGUCGAUAUACUGUGGUAACAUGCUGGCGUUGACGCGCGCUUUGGGGAGCUGCAUUAUGUCCUCCAUGAUUAUGGUCCCAACAGAGGAUUGAGCAUCA
B12: 31463140_31463260_7784_3pUTR_ENSMUSG00000025609_ENSMUST00000026699|mouse|control|control (ssRNA)
RNA: GGGAGUUCUACAGUCCGACGAUCCACAUUUGCAGAUAUGAUUUACAAAGAUUCCUUUUUUUUUCUUUAAGAUUUAUUAUUAAAUCUAAGUACACUGUAGAUGUCUUCAGACACCCCAGAAGAGGGCAUCAGAUCUUAUUAUAGCAACAGAGGAUUGAGCAUCA
B13: chr5:24309113:24309114:-_ENSMUSG00000028945_ENSMUST00000030787|mus_hu|motif|central (ssRNA)
RNA: GGGAGUUCUACAGUCCGACGAUCUUUUAUUUACAAGUAUACAUUUAACACAAUGAAAUAAACACUGAUAUACUGAAGCCGGGUUAAUAGUAGUGUAACAAUAUGCAUCAUUUUGAUGAUUACAUUAUUUUAAACAACAAACUACAACAGAGGAUUGAGCAUCA
B14: 155317593_155319135_8075_CDS_ENSG00000116539_ENST00000392403|human|control|control (ssRNA)
RNA: GGGAGUUCUACAGUCCGACGAUCAAUCUCAUCAAUCUGGGCUGAUGCCUCAUGCCGGGCAUUGUAAUAGGCCUUUCGUAGACGACAAACAUCUCUCCCAACUGGGGAUUUACGCCCAUAGUACUUCUCAGCAUUCCGAAAGACCAACAGAGGAUUGAGCAUCA
B15: 63970054_63970174_7087_CDS_ENSG00000103657_ENST00000443617|human|control|control (ssRNA)
RNA: GGGAGUUCUACAGUCCGACGAUCUUCUGCUUCAUCCCAUUGGACCUUGGCAGACGUGCUGCCCUCUUUGACCACUCCCAGCAGCGUGGCAUGGCGCCCAGUUUGCUUGUGAACACACCGACCUCCAACUCUAAGACCAGCAUCCAACAGAGGAUUGAGCAUCA
B16: 35061023_35061143_2183_CDS_ENSG00000165280_ENST00000358901|human|control|control (ssRNA)
RNA: GGGAGUUCUACAGUCCGACGAUCCAUAGUAACUGCUAGAGAGUUCAUGACCUCGGCAUCAAUGGUCUCAUCCUCUAGGUCAAUGAGAUCCAUCUUCUUGCGGAUGGCUUGCAGAGCAGCCUCUGAGCACAGGGCUGCUAAGUCCAACAGAGGAUUGAGCAUCA
B17: chr19:16452684:16452685:+_ENSMUSG00000024639_ENSMUST00000025541|perfect_dup|FALSE|FALSE (ssRNA)
RNA: GGGAGUUCUACAGUCCGACGAUCGUUUAAGAACAGAAUAACCGAGGAGUUCUGGAACCAGGGGUAUGUGAUAAUUGUUCUAAAGAGAGCCUUGCUUUCCUCCAUUCGGUUCUCAUUGUCUGACUCCACGAGAACUUGAUCAUACAACAGAGGAUUGAGCAUCA
B18: chr1:39494564:39494565:+_ENSG00000168653_ENST00000372967|hu_hu|hu_hu_hu_mus_True|28_108 (ssRNA)
RNA: GGGAGUUCUACAGUCCGACGAUCAUGUGCACGUCUCAUCGUUUUGUACCGAAGCAAGCACUCUUCGAAGUCAUCGAACUCUAUCUUGCACUCCUUUUUCGCCCGGGUAUAACCGAUCCCGUGUGCACACUCUAUCCACUCUUUCAACAGAGGAUUGAGCAUCA
B19: 23046642_23048043_1795_3pUTR_ENSMUSG00000026775_ENSMUST00000028117|mouse|control|control (ssRNA)
RNA: GGGAGUUCUACAGUCCGACGAUCUGGUAACCAUUUCUUUUCCAUCAACUGCUGCCUUUAGUGCAGCUUGGUUCACAAGAUUCUCCAACUCUGCUCCAGAGAACCCAACAGUCCCUCGAGCUAUGAUUUCUGGAUCAACAGAUUCAACAGAGGAUUGAGCAUCA
B20: 31357273_31357393_181_CDS_ENSMUSG00000013629_ENSMUST00000013773|mouse|control|control (ssRNA)
RNA: GGGAGUUCUACAGUCCGACGAUCCGACACAGCGGCCCCAAAGGGCCGGCCCUGCAGCACCGACCCGUCCUCCAACACCAGGGCCGCCAUCGGGUCGGAGCUGAGACAGGGCAAGCACGCAGACGCGGGAGGCGCGGCGAGCCCCAACAGAGGAUUGAGCAUCA
B21: chr1:46159212:46159213:+_ENSG00000159596_ENST00000372025|hu_mus|hu_hu_hu_mus_True|28_28 (ssRNA)
RNA: GGGAGUUCUACAGUCCGACGAUCUCUGAUCCCUCCCAAGAAAGCUAGGAAACCGGCUCCAUAAGCCAUCUGAGUGAAAGCUAGGACGGGGAUAUAAGACUUUGUUAUCAGCAUGACAAGUGGGGGAGCAGUAAAGGGGAUUAACAACAGAGGAUUGAGCAUCA
B22: chr1:215793774:215793775:+_ENSG00000136636_ENST00000259154|hu_mus|FALSE|FALSE (ssRNA)
RNA: GGGAGUUCUACAGUCCGACGAUCCAGAUAGGGAACUUUCUUUCUUCCAAGAAAUCCUCCUGCUUCAAACCCUUUCUUUCGGAACUCCACUUUAUGCUCAUUUUCAUCCUCUGCUGACCUUUUCUUGGGCUCUGACAAACCCUCCAACAGAGGAUUGAGCAUCA

What follows are binders tested against T1, UNK ZnF1-3 (assay: nsRBNS (natural sequence RNA bind-n-seq); RBNS binding buffer (assumed for nsRBNS): 25 mM Tris pH 7.5, 150 mM KCl, 3 mM MgCl2, 0.01% Triton X-100, 500 ug/ml BSA, 20 U/ml SUPERase-In, 4 C; UNK is unkempt and MSI1 is Musashi-1; names of the RNAs are library labels; protein concentration not given here; high values mean tight binding).

Q: B1 was tested. Which binding signal did it give?
A: 1.03 enrichment R

Q: For B2, which binding signal is on record?
A: 1.1 enrichment R

Q: With B3 as the binder, how does the binding signal read?
A: 1.47 enrichment R

Q: For B4, which binding signal is on record?
A: 1.29 enrichment R

Q: B5 was tested. Which binding signal did it give?
A: 0.817 enrichment R

Q: Which binding signal does the source give for B6 here?
A: 1.08 enrichment R

Q: B7 was tested. Which binding signal did it give?
A: 0.752 enrichment R

Q: With B8 as the binder, how does the binding signal read?
A: 1.77 enrichment R

Q: Which binding signal does the source give for B9 here?
A: 1.07 enrichment R

Q: How did the binding signal turn out when B10 was run?
A: 1.07 enrichment R

Q: With B11 as the binder, how does the binding signal read?
A: 0.47 enrichment R

Q: B12 was tested. Which binding signal did it give?
A: 0.894 enrichment R

Q: B13 was tested. Which binding signal did it give?
A: 0.761 enrichment R

Q: How did the binding signal turn out when B14 was run?
A: 0.956 enrichment R

Q: B15 was tested. Which binding signal did it give?
A: 0.943 enrichment R

Q: B16 was tested. Which binding signal did it give?
A: 0.431 enrichment R

Q: With B17 as the binder, how does the binding signal read?
A: 0.726 enrichment R

Q: Which binding signal does the source give for B18 here?
A: 0.401 enrichment R

Q: For B19, which binding signal is on record?
A: 0.69 enrichment R

Q: Which binding signal does the source give for B20 here?
A: 0.455 enrichment R

Q: Which binding signal does the source give for B21 here?
A: 1.27 enrichment R

Q: For B22, which binding signal is on record?
A: 0.513 enrichment R
